For two compounds, TGI results are on record in PubChem BioAssay (NCI).

SMILES strings stand for the structures.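 Five compound concentrations were applied to cells in 96-well plates for 48 hours; endpoints were derived by simple linear interpolation of the resulting dose-response curve. TGI marks complete inhibition of growth.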 Some entries of the source have several records that differ or are many. This is not the full list of results. An entry can have further records. For some of these results: Records of one sample usually come from different ranges of test concentrations, not given here; some values may only mark the edge of a range. For some of these results: Values given together are repeats in other runs, samples, wells, individuals or studies. A tag in brackets gives the origin of a value. Letters count within one entry.

Experiment in all cases: DTP human tumour cell line panel, 48 h
Experiment [1] has as its system HCT-15 colon.
In experiment [2] the test system is HT29 colon.
Experiment [3] concerns NCI/ADR-RES ovarian.
Experiment [4] has as its system UO-31 renal.
Experiment [5] relates to A549 NSCLC.
The subject of experiment [6] is ACHN renal.
Experiment [7] has as its system CAKI-1 renal.
The subject of experiment [8] is CCRF-CEM leukemia.
Experiment [9] relates to EKVX NSCLC.
The test system of experiment [10] is HL-60(TB) leukemia.
Experiment [11] deals with HOP-62 NSCLC.
Experiment [12] deals with HOP-92 NSCLC.
The subject of experiment [13] is K-562 leukemia.
For experiment [14], the system named is M19-MEL melanoma.
Experiment [15] concerns MALME-3M melanoma.
For experiment [16], the system named is MOLT-4 leukemia.
Experiment [17] relates to NCI-H23 lung.
Experiment [18] concerns OVCAR-5 ovarian.
Experiment [19] relates to RPMI-8226 leukemia.
For experiment [20], the system named is RXF 393 renal.
For experiment [21], the system named is SF-295 CNS.
Experiment [22] relates to SK-MEL-5 melanoma.
The test system of experiment [23] is SR leukemia.
Experiment [24] has as its system TK-10 renal.
Experiment [25] relates to UACC-257 melanoma.

As for `CN(C)CC1CCCC(CN(C)C)C1=O` (stereo not drawn), the total growth inhibition concentration (TGI) in experiment [1] was 2.51 µM [sample A, mean of 6 tests] and 35.8 µM [sample B, mean of 2 tests]; in experiment [2], 2.11 µM [sample A, mean of 5 tests] and 45.3 µM [sample B, mean of 2 tests]; in [3] it was 9.09 µM [sample A, 1 test] and 97.8 µM [sample B, mean of 2 tests]; in experiment [4] it was 33.2 µM [sample A, mean of 7 tests] and 3.24 µM [sample B, mean of 2 tests].

As for `CC[n+]1c(/C=C/c2ccc(N(CCCl)CCCl)cc2)ccc2cc(Br)ccc21`, the TGI was 15.5 µM and 11.1 mM in experiment [5]; 12.7 µM and 3.64 mM in experiment [6]; 6.31 µM and 6.49 mM in experiment [7]; 1.76 µM and 1.86 mM in experiment [8]; 16.7 µM and 17.2 mM in experiment [9]; 34.5 µM and 12.4 mM in [1]. Besides, the total growth inhibition concentration (TGI) in [10] was 646 nM and 233 µM; in experiment [11], 8.68 µM and 2.23 mM; in experiment [12] it was 2.99 µM and 230 µM; in experiment [2], 12.7 µM and 1.84 mM; in experiment [13] it was 10.3 µM and 1.31 mM; in experiment [14], 3.14 µM and 513 µM. The total growth inhibition concentration (TGI) in [15] was 3.81 µM and 312 µM; in [16] it was 3.87 µM and 988 µM; in experiment [17], 14.6 µM and 684 µM; in experiment [18], 16 µM and 726 µM; in experiment [19], 10.9 µM and 1.39 mM; in experiment [20] it was 5.76 µM and 1.13 mM. Further, the concentration for total growth inhibition (TGI) was 8.6 µM and 3.1 mM in [21]; 2.36 µM and 419 µM in experiment [22]; 3.91 µM and 4.26 mM in [23]; 20.4 µM and 1.32 mM in [24]; 2.48 µM and 267 µM in [25]; 32 µM and 4.5 mM in [4].
